Experiments:
Assay in all cases: cross-linking; purified native E. coli 70S ribosome (30 µg) treated with Leiker (bAL2) at 8:1, 4:1 or 2:1 protein-to-cross-linker mass ratios; trypsin digest, streptavidin enrichment, LC-MS/MS, pLink; the partners are subunits of the co-purified complex
Details in all cases: both partners purified
ribosomal protein S13 = ribosomal protein S13 (E. coli, UniProt P0A7S9)
ribosomal protein S2 = ribosomal protein S2 (E. coli, UniProt P0A7V0)
ribosomal protein L33 = ribosomal protein L33 (E. coli, UniProt P0A7N9)
ribosomal protein L5 = ribosomal protein L5 (E. coli, UniProt P62399)
ribosomal protein S1 = ribosomal protein S1 (E. coli, UniProt P0AG67)
ribosomal protein L9 = ribosomal protein L9 (E. coli, UniProt P0A7R1)

Measured: binding result

B1: ribosomal protein L1 (natural protein)
chain: not shown
notes: 50S ribosomal protein L1, E. coli; subunit of the native 70S ribosome; source: endogenous, in 70S ribosomes purified from E. coli DH5α (sucrose cushion, 10-50% sucrose gradient)
binds: all assays above

From publication PMC4811778 (eLife, 2016)
